# The list shows a part of the results.
# Molecular target: T1, OsWOX13 (Oryza sativa, UniProt Q5QMM3 1-267)
# T1 sequence: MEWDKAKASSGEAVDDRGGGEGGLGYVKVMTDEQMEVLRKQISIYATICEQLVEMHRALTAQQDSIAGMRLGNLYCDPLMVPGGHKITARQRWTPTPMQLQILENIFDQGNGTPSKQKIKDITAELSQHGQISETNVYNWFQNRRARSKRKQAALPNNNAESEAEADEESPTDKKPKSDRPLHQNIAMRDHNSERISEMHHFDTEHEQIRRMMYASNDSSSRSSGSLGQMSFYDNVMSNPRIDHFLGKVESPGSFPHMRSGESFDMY
# Experiment: protein-binding microarray (RPBM); PBS, 2% BSA, 51.3 ng/ul salmon testes DNA, 50 uM zinc acetate, 200 nM TF, 25 C, 1 h; high values mean tight binding
# Conditions: protein: recombinant; tags: N-terminal polyhistidine and DsRed monomer fusion (pET32a); label: CyDye5-dUTP incorporated in the synthesized complementary strand; 3' TTTTT single-stranded linker to array surface; dsDNA, one strand shown
# In short: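 Transcription factors were each fused at the N-terminus to a polyhistidine tag plus DsRed and expressed in E. coli BL21-CodonPlus before Ni–NTA purification. Binding to a double-stranded custom Agilent array was carried out with 200 nM protein at 25 °C for 1 h in PBS, 2% BSA, salmon testes DNA and 50 µM zinc acetate. The binding signal is per-feature fluorescence intensity, in arbitrary units, on an Axon 4000B scanner.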
row,Sequence,binding signal
1,ATAATGATACTTAATTAATCATGTGCTAATAATCACCCGTCGGAGTCACCTAGTGCAG,21000 fluorescence intensity (a.u.)
2,TACTAATTGTGTGCTTGGAGTCCAAAATTAGCAAAGGTAGCGGAGTCACCTAGTGCAG,10100 fluorescence intensity (a.u.)
3,GCTAGATTGGCCGCTGGCTGTTAGCTAGGACTAACACACACGGAGTCACCTAGTGCAG,24800 fluorescence intensity (a.u.)
4,AGCTCCGGTAATTACGATTTGTAGATTGGGATCCAGGGAACGGAGTCACCTAGTGCAG,27700 fluorescence intensity (a.u.)
5,TTAAATATAATTAGTATACTATGACAATGATAAATAAGTTCGGAGTCACCTAGTGCAG,16300 fluorescence intensity (a.u.)
6,GAGCCTAATTAGGCCATGATTAGCCATAAGTGCTACAGTACGGAGTCACCTAGTGCAG,40800 fluorescence intensity (a.u.)
7,AAGATTAAAATTTTCGTGACACACTTTTCAAACTGTTAAACGGAGTCACCTAGTGCAG,6960 fluorescence intensity (a.u.)
8,AATGTAGAAGTATTCAATTAACAGGTGATCTTTCTACTCTCGGAGTCACCTAGTGCAG,3490 fluorescence intensity (a.u.)
9,TGGTTTAATTTCATCAGTTTTCCTCCATTTCCTTCTTTAGCGGAGTCACCTAGTGCAG,4760 fluorescence intensity (a.u.)
10,TTTATTTGATGATTGGTATTCTATGGTTACTTTCCCAGGGCGGAGTCACCTAGTGCAG,44900 fluorescence intensity (a.u.)
11,GCTCAAATTTATATGAAAATCAGTTAAATATATCAAAACCCGGAGTCACCTAGTGCAG,3240 fluorescence intensity (a.u.)
12,GTCACATCGGACGTTTGATTGGATGTCGGAAAGAGTTTTCCGGAGTCACCTAGTGCAG,18200 fluorescence intensity (a.u.)
13,GGTCTCCTCCAATAATTAATTTGAACCAGTAATAGCAAGACGGAGTCACCTAGTGCAG,9830 fluorescence intensity (a.u.)
14,TAGATAATACATAATTAATTATTTGCTAAACTATTACTTCCGGAGTCACCTAGTGCAG,36600 fluorescence intensity (a.u.)
15,ATTACATATTGATTATTATAAATTGGAAAATAGATATATTCGGAGTCACCTAGTGCAG,19400 fluorescence intensity (a.u.)
16,TGGAATTAACTGTTGATGACACGGTACTACGGTAGAGCTCCGGAGTCACCTAGTGCAG,12000 fluorescence intensity (a.u.)
17,AATATTAAATGACATAATTTATATGCAACATAATACCATACGGAGTCACCTAGTGCAG,17400 fluorescence intensity (a.u.)
18,CTGGTAATAGAAAATAATCTAAATCGTTGATTTCATTTGACGGAGTCACCTAGTGCAG,7530 fluorescence intensity (a.u.)
19,AAAATTTTGATGGGCCTGATCTGGGCCACTTTGGGCCTTGCGGAGTCACCTAGTGCAG,4640 fluorescence intensity (a.u.)
20,TCAGTAAATTAAATACTAGAGTCAACAACACACTATCATGCGGAGTCACCTAGTGCAG,8570 fluorescence intensity (a.u.)
21,GGAAATTTTGTGACCAATTTTCGTATGTTGTTTCTCCTGGCGGAGTCACCTAGTGCAG,4030 fluorescence intensity (a.u.)
22,GATTTAAATTAGATGGAAGGTTGAGAATTAAGCTGATCCTCGGAGTCACCTAGTGCAG,13600 fluorescence intensity (a.u.)
23,CATCTCTATGATTGCCTCTAGGGCATATCACTAACACTAACGGAGTCACCTAGTGCAG,16400 fluorescence intensity (a.u.)
24,GTGGTCCGGTGGTGGGGTGATGGGGCGTGGCGGTTCTGTCCGGAGTCACCTAGTGCAG,3940 fluorescence intensity (a.u.)
25,CAAATTGGTGGGTGATTGCTAATTTATAACTGTTCGTATTCGGAGTCACCTAGTGCAG,64100 fluorescence intensity (a.u.)
26,ATGATAAATGGATTACTTACATGACGTTTGCCTATCGATCCGGAGTCACCTAGTGCAG,17500 fluorescence intensity (a.u.)
27,GGTCGCCGGATCGCGGGAGGGAGGGAGGGAGGGAGGGAGGCGGAGTCACCTAGTGCAG,7230 fluorescence intensity (a.u.)

row,Sequence,binding signal
1,TTACATGATTATGTTAATTACTACACAATTATAGGGCCTACGGAGTCACCTAGTGCAG,42500 fluorescence intensity (a.u.)
2,TGATTATGATTGGAGTCCCTGGCAAAGTTTGGCCGAGTTCCGGAGTCACCTAGTGCAG,21700 fluorescence intensity (a.u.)
3,TTAGTAAATAGTCAATTAATCATGTACCGATCAAATGAATCGGAGTCACCTAGTGCAG,16900 fluorescence intensity (a.u.)
4,GTGATGTCTTATTGACATGACATCATAGACACTACTTATACGGAGTCACCTAGTGCAG,5410 fluorescence intensity (a.u.)
5,CGCTTCGAGTTAATTAACGAAATCTCAAGGGATCATTACGCGGAGTCACCTAGTGCAG,14700 fluorescence intensity (a.u.)
6,TTCATCATCAATCATCATATTAAGTTAAATCTATCTCAAACGGAGTCACCTAGTGCAG,15400 fluorescence intensity (a.u.)
7,GTAAATTGATCATTTCGATACATCAACATCCGCACAAACACGGAGTCACCTAGTGCAG,39900 fluorescence intensity (a.u.)
8,AGTACCTGATGAGTGATGACTAGTGCTTTCACAAATTCAGCGGAGTCACCTAGTGCAG,3400 fluorescence intensity (a.u.)
9,AGAAATTAGGCTTAAAAGATTCATCTCGCAAATTAGTCGCCGGAGTCACCTAGTGCAG,3540 fluorescence intensity (a.u.)
10,TATTTAATTTGTGAATGTTGCATGTGATGTTCATTGAATGCGGAGTCACCTAGTGCAG,19900 fluorescence intensity (a.u.)
11,TCTCATAAATAAATTAGCCAGACCATCCAAGCAACAAACGCGGAGTCACCTAGTGCAG,3550 fluorescence intensity (a.u.)
12,ACTGATTTCCCGTCTATCCTGTGGCACCATTCATACTTCACGGAGTCACCTAGTGCAG,21400 fluorescence intensity (a.u.)
13,GTCCTTCTATCTCCAAATCTAATTTGAAATTGCTACATCACGGAGTCACCTAGTGCAG,5230 fluorescence intensity (a.u.)
14,CTTAATTAATTAATAGCAGCAGCAATGCCACTGTGGCCATCGGAGTCACCTAGTGCAG,53500 fluorescence intensity (a.u.)
15,AATTCATACTAATTTGTTTGTACGGTGTTTCTTTTAGTTGCGGAGTCACCTAGTGCAG,6660 fluorescence intensity (a.u.)
16,AATAATTTACGGACAACCAATGTCATTTTGTGCATAGGTTCGGAGTCACCTAGTGCAG,6250 fluorescence intensity (a.u.)
17,GTATGATGGTAATTCTTGGAATTAACGCTTGTTGATATCACGGAGTCACCTAGTGCAG,5530 fluorescence intensity (a.u.)
18,GAGCAGCAGCTTAATTGGATCATCGAATCTCGCACCGCCACGGAGTCACCTAGTGCAG,4860 fluorescence intensity (a.u.)
19,CATGCGTAATGATTGATGGAATATAATGGCGTTGCCTTGCCGGAGTCACCTAGTGCAG,39900 fluorescence intensity (a.u.)
20,ACAATCAAGTAAAATCTTAATTAGTGACATCAAAGCAATTCGGAGTCACCTAGTGCAG,9910 fluorescence intensity (a.u.)
21,CCTCAGATTTAATGACGAACTCTGTGGACATCTCTTGCTGCGGAGTCACCTAGTGCAG,6450 fluorescence intensity (a.u.)
22,GATGTTCAATCACGCAAGATTAAACAATCCTGAAGTTAATCGGAGTCACCTAGTGCAG,19300 fluorescence intensity (a.u.)
23,CCACAAATTAATTGATCTGCTTCCTCCTCCCCTCCTCTCACGGAGTCACCTAGTGCAG,49600 fluorescence intensity (a.u.)
24,CTACACTTGATTTATCTTAACCCCTGCTTAGACTATGATTCGGAGTCACCTAGTGCAG,18500 fluorescence intensity (a.u.)
25,GCGGATTGGTTGCCTGACCCTCCTCCTCCTCCTCCTCCTCCGGAGTCACCTAGTGCAG,8490 fluorescence intensity (a.u.)
26,ATCCTATCCCATATTAATTATTCTTCGAATTAGATTCGAGCGGAGTCACCTAGTGCAG,3160 fluorescence intensity (a.u.)
27,GTTGATTTAGTTTTGAGGAGCCGGAGAGGAGAGCAGGTGTCGGAGTCACCTAGTGCAG,14300 fluorescence intensity (a.u.)

# Reference: publication PMC7819943, “Rice protein-binding microarrays: a tool to detect cis-acting elements near promoter regions in rice”
